# Measured values as given in PubChem BioAssay (NCI).
# More than one record can exist for a structure, and the calls need not agree.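 Plates (96-well) were seeded with cells, treated with compound at one concentration, and incubated for 48 hours before percent growth was determined.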 The source holds more than one record for some entries. They are shown here; other results are not. Rule for the calls: active = growth percent below 10; inactive = the rest. An entry can have further records. This drug was run again and again over the years, at the concentration stated with the values; each value is one run. Counts like (3×) count equal records among those shown.
# Legend:
# [1] = test system: UACC-257 melanoma; assay: NCI-60 one-dose screen, 48 h (100 = growth as untreated, 0 = no growth, -100 = all killed); conditions: 2.5 mM
# [2] = test system: M14 melanoma; assay: as above; conditions: 2.5 mM
compound,measurement,setting,value
O=c1[nH]cc(F)c(=O)[nH]1,growth,[1]; runs of 1995,"inactive: 30.5, 29.1, 17.3 (2×), 15.1, 35.9, 18, 32.7, 29.8, 27.3, 15.9, 22 (2×), 13.9 (2×), 26.2, 14.7, 23.8, 20, 21.6, 26.9, 34.1, 31.2, 22.5, 18.1, 12.6, 13.5, 10.3% and active: 9, 8.34, 6.23, -19.5, -5.27, -1.24, 5.31, -47.3, -8.14, 7.04, 5.27%"
same,growth,[1]; runs of 1996,"inactive: 30.5, 37.8, 35.7, 10.3 (2×), 21.7, 14, 33.5, 34.6 (2×), 25, 40.6, 19.1, 38.8, 34.1, 29.5, 43.8, 23.4, 35.4, 32.8 (3×), 31.9, 21.6, 20, 28.3, 43.9, 17.9, 23.1, 102, 34.2, 22.2, 55.6, 19.9, 26.1, 22.3, 31.1, 39.2, 62.6, 46, 32.7, 21.1, 17.3, 25.5, 21.5, 18, 27.2, 28.9, 39.5, 19.6% and active: 5.6, -47.9, 6.33, -8.39, 7.31, -3.44, -12.7, 6.7%"
same,growth,[1]; runs of 1997,"inactive: 25.5, 21.4, 45, 26.6, 10.3, 25.9, 17.6, 23.1, 20.8, 15.5 (2×), 19.4 (2×), 29.5, 20.9, 16.3, 25.1, 30.8, 36.6 (2×), 35.4, 26.8, 28.2, 24.5, 52.7, 25.6, 11.2, 12.9, 32.2, 19.3, 30.5, 22, 21.2, 22.8, 16.5, 21.7, 22.1, 25.8, 23.7% and active: 9.48, -16.7, 8.14, -6.31, 7%"
same,growth,[1]; runs of 1998,"inactive: 10.2, 22.5, 23.2, 18.1 (2×), 36.6, 49.5, 33.2, 34.6, 48.6, 33.1, 36.1, 23.1, 33.5, 43.2, 15.8, 22.8, 14.1% and active: 3.84, -11.2, -100, 5.82%"
same,growth,[1]; runs of 1999,"inactive: 56.4%, 16.4%, 54.4% and active: -30.2, -100 (2×), -70.6, -33.1, -68.9, -59.4, -54.7, -65.2, -84.5, -80.1%"
same,growth,[1]; runs of 2000,"active: -84.2, -58.3, 0.358, -40.3%"
same,growth,[2]; runs of 1991,"inactive: 25.6, 19, 37.9, 17.1, 28.8, 21.1, 43.1, 35.9, 37.1, 26.8, 24.2, 39.2, 25.5, 31.2, 35.5, 21.4, 43.5, 17, 28.7% and active: 8.16%"
same,growth,[2]; runs of 1992,"inactive: 32.3 (2×), 26.3, 26.1 (3×), 29.5, 41.2 (2×), 13.3, 30.4, 32.9, 41.9, 32.5, 33.2, 27.5, 44.6, 54.9 (2×), 23.9, 14.1, 36.8, 53.5, 44.2, 31.2, 15.7, 22.1, 31.3 (2×), 19.1 (2×), 28.1, 43.5, 30.5, 27.3, 33.6, 27.9, 29.2, 45.2, 33.4, 35, 52, 28.4, 25.2 (2×), 12.6, 47.2, 27.1, 44.4, 22.4, 23, 24.2 (2×), 24.3, 32, 18, 30.3, 12.4, 26.8, 15.4, 19.8, 33.3, 24, 33.7 (2×), 38.7, 24.4, 19.3, 11.8, 23.6, 40.5, 26.9, 37.3, 18.7, 36.4, 36.6, 23.5 (2×), 23.8, 29.1, 12.5, 17.5, 27.2, 30.1, 38.1, 23.1, 47.4, 11.6, 33.5, 32.4 (2×), 35.6, 33.9, 23.4, 20.3, 25.6, 29.6 (2×), 39.3, 22.7, 33.8, 39.4, 41.7, 15.1, 26.7, 45.1, 18.1, 24.9, 29.4, 57.4, 26% and active: -19.7%, 9.7%, 7.57%"
same,growth,[2]; runs of 1993,"active: 8.12%, 9.1% and inactive: 27.1, 12.1, 33.2, 44.2, 21.1, 34.7, 31.2, 39 (2×), 45, 37.4, 30, 15.1, 40.7, 39.1, 46.9, 30.4 (2×), 20.7, 29.9, 47.1, 47.6, 23.8, 32.5 (2×), 33.8, 27.6, 39.8, 21, 32.3, 53.6, 33.3 (2×), 17.9, 94.9, 50.2, 18.2, 82.9, 19.5, 31.6 (2×), 11.9, 20.6, 52.4, 40.3, 33%"
same,growth,[2]; runs of 1994,"inactive: 16.3, 33.1 (2×), 31.6, 35.2, 34.7, 46, 36.4, 28.9, 35, 40.5, 33.6, 17.2, 33.4, 31.9, 44.6, 30.3, 36 (2×), 37.8, 14.5, 32.9, 11.4, 28.3, 31.1, 33.2, 29.9, 46.1, 28.5, 30.9, 34.3, 30.8, 16.2, 43.2%"
same,growth,[2]; runs of 1995,"inactive: 29 (2×), 16.6, 24.7, 21.2, 27.4, 37.7, 20.8, 35.2, 32.8, 27.3, 25.9, 39, 23.8, 20.6, 19.5, 34.3, 46.8, 45.3, 38.7, 35.4, 30.3, 31.8, 37.3, 19.2, 22.5, 30.6, 19.6, 23.2, 15, 41% and active: -31.3%, -3.6%, 6.82%"
same,growth,[2]; runs of 1996,"inactive: 48.3, 36.1, 22.3, 35, 20.8, 22.9, 26.3, 28.5, 45.6, 26.4, 33.1, 23, 36.4, 32.6, 29.8 (2×), 31.5, 35.6, 39.2 (2×), 31.9, 41.4, 26.5, 43.9, 25.7, 52.9, 35.3 (2×), 31.4, 32.1, 47.3, 44.2, 36.5, 46.3 (2×), 43.2 (2×), 40.7, 32.3, 41.3, 40.8, 32, 31.8, 40, 53.8, 36, 32.2, 22.8, 36.3, 39.9, 42.4, 58.2, 45.1, 60.5, 41.8, 35.2, 36.8, 37.6%"
same,growth,[2]; runs of 1997,"inactive: 36.7, 34.8 (2×), 38.7, 55.8, 40, 37.1, 48.9, 32.8, 46.1, 37.5 (2×), 40.4, 12.8, 41.6, 50.6, 48.3, 42.7, 23.5, 48.8, 26.1, 38.2, 39.6 (2×), 22.2, 46, 32.6, 43.5, 43.9, 33.8, 29.9, 39.2, 49.7, 34.9, 47.8, 46.8, 41.2, 37.6, 52.2, 39.3, 30.6, 33.5, 47, 46.9, 11.6% and active: -99.3%, 9.95%"
same,growth,[2]; runs of 1998,"inactive: 41.5, 32.6, 51.5, 34.3, 32.4, 43.2, 40.9, 55, 29.3, 32.9, 34.8, 14.7, 30.5, 29.7, 33.3, 26, 37.7, 45.7, 26.6, 28.4, 25.6, 25.9, 43.9, 33.5, 33% and active: -0.476%"
same,growth,[2]; runs of 1999,"inactive: 26.2, 34.6, 22.7, 29.8, 31.6% and active: 8.17, -100 (3×), -34.8, -35.5, -92.9, -54.3, 1.34, -75.8, -68.6, -57%"
